Assay results as given in the supplement of paper PMC3334620.
The full ranking holds about 33,000 sequences; the median of “E-score (-0.5 to 0.5)” is about -0.01, and the highest 2% start at about 0.26. This is one part of the list.

biological target: Ste12 (UniProt P13574); experiment: PBM E-score (8-mer binding enrichment) (E-score (-0.5 to 0.5)); higher = stronger / more preferred TF binding; most listed sequences are background and not binding sites; settings: protein concentration: 200 nM; construct: GST-DNA-binding domain
Experimental: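 Universal 'all 10-mer' protein binding microarrays (Agilent AMADID 015681) probed with GST-tagged S. cerevisiae TFs (full-length or DBD) made by in vitro transcription/translation (PURExpress), about 100-200 nM. Bound TF was detected with fluorescent anti-GST. Each ungapped 8-mer (which stands for itself and its reverse complement) is scored by the PBM enrichment score (E-score), a modified Wilcoxon-Mann-Whitney statistic from -0.5 to +0.5, computed with the Universal PBM Analysis Suite. Scale: above 0.35 generally sequence-specific binding.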

| Sequence | PBM E-score |
| --- | --- |
| GTCACGAA | 0.206 |
| CGGACAAA | 0.0587 |
| AGCTTCTC | -0.187 |
| AATGTTAC | 0.0846 |
| CGGTCTTA | -0.0177 |
| AGTCGGTC | -0.174 |
| AAAACGGC | 0.225 |
| CGGAACAA | 0.181 |
| CGTGGGCC | -0.144 |
| AGCAAAAT | 0.129 |
| CTGGACGA | -0.16 |
| CGTCTTAA | -0.0333 |
| GTTTATGA | 0.0999 |
| ATCTTGAA | 0.00108 |
| AGGGTACA | -0.00798 |
| ACAGGGTC | -0.115 |
| AATCAGCC | -0.0704 |
| TTCTTCAA | -0.00874 |
| TAAGATAA | 0.0959 |
| CTGTTGTC | -0.0526 |
| CTCTGGCA | 0.0647 |
| CTTTTACC | 0.0888 |
| TCCAAACA | 0.0573 |
| CGCTTTTC | 0.142 |
| GACAAGAC | 0.0371 |

| Sequence | PBM E-score |
| --- | --- |
| AACGTTGT | 0.189 |
| CGAAGACG | -0.13 |
| CAGTGAGA | 0.0675 |
| ATACCTGG | -0.0421 |
| CGATGTGA | 0.046 |
| TGCGGCAA | -0.00227 |
| GTAACCAC | -0.00545 |
| AGAAAGAT | 0.0761 |
| CATACTTC | -0.0961 |
| CTTCCTTC | -0.198 |
| CTATGCTC | -0.0127 |
| ATTAGGGA | -0.00141 |
| AAACGCTG | 0.0873 |
| AATAGGGG | 0.0284 |
| CGCAGGAG | -0.0115 |
| GCCCACAC | 0.0974 |
| AAGGTGTC | -0.125 |
| ACGGTAGT | -0.162 |
| ATGTGCAG | -0.18 |
| CCTAGGGC | -0.186 |
| ATTATTAC | 0.269 |
| CATGAATG | 0.0749 |
| CGAATACA | 0.0383 |
| ATATCATG | -0.0327 |
| CCTTCTAA | -0.209 |

| Sequence | PBM E-score |
| --- | --- |
| GCAGTAAA | 0.221 |
| AGCTTAAC | -0.201 |
| AGTTTTCC | -0.0188 |
| ATGCAGAA | -0.0849 |
| CCAGCGGG | -0.163 |
| ATATGTAG | 0.0162 |
| AAAACACG | 0.304 |
| GCTGGCTA | -0.2 |
| CCGTAAGG | -0.214 |
| GTTAGATA | 0.171 |
| ACTCGCAT | -0.0182 |
| CTTGGGGA | 0.0413 |
| CACATGCC | -0.0269 |
| CACGCGAG | 0.0636 |
| GAGCAGAC | 0.00165 |
| AGTAAAGG | 0.187 |
| AGAGGTGG | -0.0142 |
| ACTAGGCC | -0.304 |
| TGACAACA | 0.0689 |
| AATATCTA | -7e-05 |
| ATTAAACA | 0.157 |
| GAACCTCC | 0.0151 |
| GGTGACGA | 0.0891 |
| CAGCTCCC | -0.254 |
| TTCAGGAA | 0.118 |

| Sequence | PBM E-score |
| --- | --- |
| CTTGCCAA | -0.105 |
| AAAGACCA | -0.00497 |
| CACCTCAA | 0.101 |
| ATGACATC | 0.162 |
| CCCTAGGG | -0.201 |
| TGACCAAA | 0.101 |
| AATAATCT | 0.142 |
| ATTAGGCG | -0.0372 |
| ATGAACGA | 0.0693 |
| GGAACCTA | 0.0295 |
| ACTGAATG | -0.0478 |
| CGCCTACG | -0.155 |
| GGCGGGAA | 0.00719 |
| ACGACTAT | -0.0677 |
| CTCATCCC | 0.0715 |
| ACCGCCCT | -0.00709 |
| CAGATTGC | -0.0985 |
| AGGGATCG | -0.153 |
| CACCTCAG | -0.0725 |
| CAAGGCCA | -0.0992 |
| CGTGAGGC | -0.0965 |
| ACGACTAA | -0.226 |
| GCCAGCAA | -0.0826 |
| GGCGGACC | 0.0941 |
| CCCGTTGA | 0.0754 |

| Sequence | PBM E-score |
| --- | --- |
| CTAAACAC | 0.179 |
| TGGATACA | -0.0618 |
| AAAGTAAG | -0.0593 |
| CATCGGGC | -0.0339 |
| GTGGGAAC | -0.108 |
| GGCGCCAC | -0.0338 |
| CAGCTTCC | -0.147 |
| CGCCGACG | 0.0291 |
| ACACCCCC | -0.282 |
| CATCGATA | 0.128 |
| GCTGGTCC | -0.156 |
| AATATGTC | 0.117 |
| CGCGAGGA | -0.0823 |
| ACTTGTAA | 0.0516 |
| AAATAAGC | 0.0762 |
| ACGGTGGG | -0.00172 |
| ATCGTAAC | -0.047 |
| CGGTACCG | -0.136 |
| GGCTTTTA | -0.058 |
| GATTCCGC | 0.0216 |
| CACGGTCG | -0.284 |
| TCTAGGCA | 0.0522 |
| CTGTCTAA | -0.0946 |
| TCCAAGCA | -0.16 |
| CCATTCGC | 0.052 |

| Sequence | PBM E-score |
| --- | --- |
| TGTCGTAA | -0.0855 |
| CCCGTGTC | -0.0536 |
| CAGAGGAA | 0.0502 |
| CGAAAAGC | -0.0111 |
| ATTTAGTC | -0.0892 |
| GCCAACTA | -0.196 |
| AAGTCGCA | 0.0441 |
| CCATAAGC | -0.125 |
| AATCGCGA | 0.202 |
| CCGATCCG | -0.0912 |
| TATGTCAA | 0.171 |
| AGACGGCA | -0.13 |
| ATGGCGCC | -0.254 |
| ATACCTCG | 0.0226 |
| CCTATCGC | -0.176 |
| AAGCGGGC | -0.138 |
| CAGACCAG | -0.0554 |
| CCTGTGCA | -0.172 |
| AGACATTC | -0.105 |
| CCAAAGAA | 0.181 |
| GATTGACA | -0.0608 |
| AGGGTCTG | -0.0534 |
| AGTCTAAT | 0.00604 |
| AGCCATCG | -0.208 |
| GACTGATC | 0.0386 |

| Sequence | PBM E-score |
| --- | --- |
| AAGCCCGC | -0.0285 |
| ACGAGCCA | 0.0397 |
| GATTGACC | -0.0669 |
| AGAGCGCC | 0.0912 |
| AGTACCGA | 0.0869 |
| GCCACAAC | 0.126 |
| CCACAGGC | -0.246 |
| CACTGTAG | -0.049 |
| ACTCGACC | -0.0423 |
| ATAGATAA | 0.159 |
| CCGGTAAA | 0.115 |
| AAGAGAGC | -0.126 |
| CAGCACTG | -0.00677 |
| GGCAAGGA | -0.131 |
| CATCATGA | -0.0187 |
| ACGACTCC | -0.14 |
| AACCGCAG | -0.122 |
| ACCGCTGC | -0.0433 |
| CATTGTAA | 0.234 |
| CGTTCCTC | 0.00377 |
| AACCGAGG | -0.115 |
| CACTGTTA | -0.0596 |
